Test results published in patent EP0814162A2 (priority 1996, dated 1997).
Converted amounts (≈) assume the structure as drawn.

System: strain Wood 46-3
Assay: microbe, parasite or virus in culture
Conditions: Staphylococcus aureus, WOOD463

**Q.** How did the MIC turn out when CC[C@H]1OC(=O)[C@H](C)[C@@H](O[C@H]2C[C@@](C)(OC)[C@@H](O)[C@H](C)O2)[C@H](C)[C@@H](O[C@@H]2O[C@H](C)C[C@H](N(C)C)[C@H]2O)[C@](C)(O)C[C@@H](C)C(=O)[C@H](C)[C@@H](O)[C@]1(C)O [Erythromycin] was run?
**A.** 0.008 µg/mL (≈ 0.0109 µM)

**Q.** For CN[C@H](CC(C)C)C(=O)N[C@H]1C(=O)N[C@@H](CC(N)=O)C(=O)N[C@H]2C(=O)N[C@H]3C(=O)N[C@H](C(=O)N[C@H](C(=O)O)c4cc(O)cc(O)c4-c4cc3ccc4O)[C@H](O)c3ccc(c(Cl)c3)Oc3cc2cc(c3O[C@@H]2O[C@H](CO)[C@@H](O)[C@H](O)[C@H]2O[C@H]2C[C@](C)(N)[C@H](O)[C@H](C)O2)Oc2ccc(cc2Cl)[C@H]1O [Vancomycin], which MIC is on record?
**A.** 1 µg/mL (≈ 0.69 µM)

**Q.** Which MIC does the source give for Cc1onc(-c2ccccc2)c1C(=O)N[C@@H]1C(=O)N2[C@@H]1SC(C)(C)[C@@H]2C(=O)O [Oxacillin] here?
**A.** 0.25 µg/mL (≈ 0.623 µM)

**Q.** For COc1cccc(OC)c1C(=O)N[C@@H]1C(=O)N2[C@@H]1SC(C)(C)[C@@H]2C(=O)O [Methicillin], which MIC is on record?
**A.** 2 µg/mL (≈ 5.26 µM)

**Q.** Which MIC does the source give for C[C@@H]1O[C@@H]1P(=O)(O)O [Fosfomycin] here?
**A.** 0.25 µg/mL (≈ 1.81 µM)
